# Measurements taken from PubChem BioAssay AID686979 (National Center for Advancing Translational Sciences (NCATS), 2013).
# The campaign covered roughly 420,000 compounds. About 50,000 (12%) were called active. The inconclusive results got no clear call from the source; some entries with a clear call stand among them for comparison. Calls come from the whole dose curve; as a rule, active = well fitted inhibition curve with a large enough effect; inconclusive = small, poorly fitted or top-dose-only effect; inactive = flat fitted curve, though single readings scatter. No potency is given beside an inconclusive call; the fits are too rough.
# Assay: qHTS for Inhibitors of human tyrosyl-DNA phosphodiesterase 1 (TDP1): qHTS in cells in presence of CPT; note: nearly all actives have a fitted effect of over 55% in size
# Details: chicken DT40 Tdp1-/-;hTDP1 cells + 20 nM CPT, ATP luminescence, 48 h; activity change, negative = growth inhibition: at 46.2 µM (top of the series)
# Method in brief: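 Cell growth measured by CellTiter-Glo luminescence after a minimum 48 h, 37 C compound exposure with 20 nM CPT in Tdp1-knockout DT40 cells stably expressing hTDP1, seeded 400/well; qHTS titration format.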
# % is set by controls: 0 for no effect and ±100 for the full control effect; potency is the fitted concentration of half-maximal effect; tags give direction and shape of the fitted curve.
SMILES,Potency,"activity change, negative = growth inhibition"
COCCNC(=O)CSC1=N/C(=C/c2ccc(Cl)c(Cl)c2)C(=O)N1c1ccccc1F,active: 14.6 µM,–
CC(O)(C(=O)Nc1ccc(S(=O)(=O)c2ccccc2)cc1)C(F)(F)F (stereo unspecified),"inconclusive [inhibitor, single point]",–
Cc1cccc(Cn2cc(S(=O)(=O)c3cccc(C)c3)c(=O)c3cc(F)c(N4CCOCC4)cc32)c1,"inconclusive [inhibitor, single point]",–
CCOC(=O)N1CCN(C(c2ccnc3ccccc23)c2nnnn2-c2ccc3c(c2)OCCO3)CC1 (stereo unspecified),"inconclusive [inhibitor, single point]",–
CC(C)c1cc(C(=O)Nc2sc3c(c2C#N)CCC3)no1,"inconclusive [inhibitor, single point]",–
O=C1c2ccccc2[C@@H]2C[C@@H](O)[C@H](Nc3cccc(C(F)(F)F)c3)CCN12,active: 23.1 µM,–
CC1CCN(c2ccc(N3C(=O)C4CCCCC4C3=O)cc2[N+](=O)[O-])CC1 (stereo unspecified),inactive,–
CC(=O)Nc1ccc(N(C(=O)c2ccccn2)C(C(=O)NC2CCCCC2)c2ccc(F)cc2)cc1 (stereo unspecified),inactive,–
O=C(CN(c1cccc(C(F)(F)F)c1)S(=O)(=O)c1ccc(Cl)c([N+](=O)[O-])c1)NCc1ccccc1Cl,active: 16.4 µM,–
CCN(C(=O)COC(=O)/C=C/c1cnc2ccccc2n1)C1CCS(=O)(=O)C1 (stereo unspecified),"inconclusive [inhibitor, partial curve, poor fit]",–
CC(=O)N1CCC(=O)N(C(C)C)c2ccccc21,inactive,–
CN(Cc1ccccc1)c1ncnc2[nH]ncc12,"inconclusive [inhibitor, single point]",–
CN(C(=O)c1cccc(NC(=O)Cc2ccc([N+](=O)[O-])cc2)c1)C1CCCCC1,active: 20.6 µM,–
CC(C)CN(C(=O)c1nn(C)c(=O)c2ccccc12)c1nc2ccccc2s1,"inconclusive [inhibitor, single point]",–
COc1ccccc1C(CC(=O)Nc1ccccc1C)c1ccc(OC(C)C)cc1 (stereo unspecified),"inconclusive [inhibitor, single point]",–
COc1ccc(CN2C(=O)CN(S(C)(=O)=O)CC2(C)C(=O)NCc2ccccc2)cc1OC (stereo unspecified),inactive,–
NC(=O)C1Cc2ccccc2CN1C(=O)c1cc(C2CC2)nn1-c1ccccc1 (stereo unspecified),inactive,–
COc1cc(/C=N/NC(=O)c2cc(-c3ccccc3OC(C)C)nc3ccccc23)ccc1O,"inconclusive [inhibitor, partial curve, poor fit]",–
CC(/C=N/NC(=O)c1cc(C(C)C)[nH]n1)=C\c1ccccc1,"inconclusive [inhibitor, single point]",–
CCN(C(=O)COC(=O)c1cn(-c2ccccc2)nc1-c1ccccc1)C1CCS(=O)(=O)C1 (stereo unspecified),"inconclusive [inhibitor, single point]",–
Cc1ccc(/C=C/C(=O)Nc2cc(S(=O)(=O)N3CCCCCC3)ccc2OCC(F)(F)F)o1,"inconclusive [inhibitor, single point]",–
CCCOc1ccc(C(F)(F)F)cc1NS(=O)(=O)c1ccc(Cl)nc1,active: 14.6 µM,–
Cn1c(/C(C#N)=C/c2ccc(-c3ccc(S(N)(=O)=O)cc3)o2)nc2ccccc21,active: 13 µM,–
CCOC(=O)N1CCN(CC(=O)Nc2ccc(F)cc2)CC1,"inconclusive [inhibitor, full curve, poor fit]",–

SMILES,Potency,"activity change, negative = growth inhibition"
COc1ccc2c(c1)C=C(CN1CCC(CO)(CCc3ccccc3)CC1)CO2,"inconclusive [inhibitor, single point]",–
COc1cccc(SCc2noc(C(=O)NCC3CC3)c2C(=O)NCC2CC2)c1,"inconclusive [inhibitor, single point]",–
O=S(=O)(c1cccc2cccnc12)N1CCN(Cc2ccc3c(c2)OCO3)CC1,"inconclusive [inhibitor, single point]",–
Cc1nn(CC(=O)NC2CCCCC2)c(=O)c2cccn12,inactive,–
COc1cc2c(cc1OC)C(c1ccc(-c3ccc(Cl)cc3Cl)o1)=NCC2,active: 1.16 µM,–
COC(=O)C1=C(C)N(C)C(C)=C(C(=O)OC)C1c1ccc(Cl)cc1,inactive,–
C=C(C)Cn1c(SCC(=O)N/N=C/c2c(O)ccc3ccccc23)nc2ccccc2c1=O,active: 7.31 µM,–
O=C(C[C@@H]1C/C=C\CC[C@H](Cc2ccc(F)cc2)C(=O)OC[C@@H]2CCCN2C1=O)NCCO,"inconclusive [inhibitor, partial curve]",–
O=C(CCc1nnc(CCCCc2ccccc2)o1)NCCc1cccnc1,inactive,–
COc1ccc(-c2onc(C)c2C)cc1S(=O)(=O)NCC1CCN(Cc2cc(C)ccc2C)CC1,"inconclusive [inhibitor, single point]",–
CCOC(=O)C1=C(COC(=O)c2cc(OC)c(OC)c(OC)c2)NC(=O)NC1C (stereo unspecified),inactive,–
COC(=O)c1ccc(OCCCCN(C)Cc2ccccc2)cc1,"inconclusive [inhibitor, single point]",–
FC(F)(F)c1cccc(-c2nc3ccccc3n2C(c2ccccc2)c2nc3ccccc3[nH]2)c1 (stereo unspecified),"inconclusive [inhibitor, single point]",–
CN(C)c1ccc(/C=C(/C(=O)c2ccc(Cl)cc2Cl)n2cncn2)cc1,active: 23.1 µM,–
CCn1c(=O)c2cc(C(=O)NCCCN3CCC(C)CC3)sc2c2ccccc21,active: 23.1 µM,–
CCCc1[nH]n(-c2nc3ccccc3s2)c(=O)c1C=NCCCOC,inactive,–
O=C(CCNS(=O)(=O)c1ccc(Br)s1)N1CCN(c2ccccc2)CC1,"inconclusive [inhibitor, single point]",–
Cc1ccccc1N=Nc1c(O)[nH]c2ccccc12,"inconclusive [inhibitor, single point]",–
CC(C)Oc1ccc(CCN=C(N)N=C(N)N)cc1Cl,active: 10.3 µM,–
CN=C(Nc1ccccc1)SC1CC(=O)N(c2cccc(OC)c2)C1=O (stereo unspecified),"inconclusive [inhibitor, partial curve, poor fit]",–
COc1ccc(S(=O)(=O)Cc2ccc(C(=O)N3CCN(C(=O)c4ccco4)CC3)o2)cc1,inactive,–
CC(=O)N(c1ccccc1C)C1CCCC1,inactive,–
Cc1c(NC(=S)NC(=O)c2cccc(Cl)c2)c(=O)n(-c2ccccc2)n1C,inactive,–
Cc1cccc(NC(=S)NCCC(c2ccccc2)c2ccccc2)c1,"inconclusive [inhibitor, single point]",–

SMILES,Potency,"activity change, negative = growth inhibition"
Cc1cc(C)cc(N(CCC#N)C(=O)CSC2=Nc3ccccc3C3CC=NN23)c1 (stereo unspecified),active: 20.6 µM,–
Cc1ccc(-c2nc3c(c(SCC(=O)N4CCOCC4)n2)COC(C)(C)C3)cc1,"inconclusive [inhibitor, single point]",–
Cn1nc(C(F)(F)F)c2cc(NC(=O)OCc3ccc(F)cc3)sc21,inactive,–
COC(=O)C1=C(NC(=O)C(C)(C)C)CCS1,inactive,–
COc1cccc(-n2c(SCC(=O)Nc3cc(C)on3)nc3c([nH]c4ccccc43)c2=O)c1,"inconclusive [inhibitor, single point]",–
COc1ccc2oc(=O)c(C(=O)Oc3ccc(NC(C)=O)cc3)cc2c1,inactive,–
C=CCn1c(=O)c(C(=O)NCCc2ccccc2)c(O)c2ccccc21,active: 20.6 µM,–
CCOc1ccc(S(=O)(=O)N2CCOCC2)cc1NC(=O)C1CCC1,inactive,–
Cc1ccc(-c2cc3nc(-c4ccc(Br)cc4)cc(N)n3n2)cc1,"inconclusive [inhibitor, single point]",–
c1ccc(C(Cc2nc(-c3ccccn3)no2)c2ccccc2)cc1,"inconclusive [inhibitor, single point]",–
O=S(=O)(NC1CC1)c1ccc(Cl)cc1F,inactive,–
O=C(NCCc1csc(-c2cccnc2)n1)c1cccc2ccccc12,active: 16.4 µM,–
Cc1ccc(Cl)cc1NC(=O)CSc1nc2ccccc2nc1Cc1ccccc1,"inconclusive [inhibitor, single point]",–
Cc1cccc(N2CC(C(=O)Nc3ccc(S(=O)(=O)N4CCCCC4)cc3)CC2=O)c1C (stereo unspecified),"inconclusive [inhibitor, single point]",–
CSc1ccccc1NC(=O)C(C)N(C)CC(=O)N1CCN(Cc2ccccc2)CC1 (stereo unspecified),"inconclusive [inhibitor, single point]",–
CSc1nc(N)nc(SCC(=O)Nc2ccc(Cl)cc2)c1C#N,"inconclusive [inhibitor, single point]",–
Cc1cnc(NC(=O)CSc2ccccc2)s1,"inconclusive [inhibitor, single point]",–
CC(C)(C)n1nnnc1C(c1cc2ccccc2o1)N1CCCCC1 (stereo unspecified),–,inconclusive: -31.2% [inhibitor]
O=C(c1cc2ccccc2o1)N1CCN(c2ncccn2)CC1,"inconclusive [inhibitor, full curve]",–
CCOC(=O)c1ccc(NC(=O)Cn2cnc3sc(C(=O)OCC)c(C)c3c2=O)cc1,inactive,–
COc1ccc(C(c2nnnn2C(C)(C)C)N2CCN(c3nc4ccccc4s3)CC2)cc1OC (stereo unspecified),"inconclusive [inhibitor, single point]",–
CCN(CCn1cccn1)C(=O)CC1C(=O)NCCN1CCc1ccccc1 (stereo unspecified),inactive,–
CCCCCn1c(=O)c2c(nc3n2CCN3c2ccc(Br)cc2)n(C)c1=O,"inconclusive [inhibitor, partial curve]",–
